# Measured values: the supplement of paper PMC8728848
# This is one part of the list.
# B1: Cohesin-marm-DC-ASGPR-CRD (protein)
# chain: LDITSHHHHHHDDLDAVRIKVDTVNAKPGDTVRIPVRFSGIPSKGIANCDFVYSYDPNVLEIIEIEPGDIIVDPNPDKSFDTAVYPDRKIIVFLFAEDSGTGAYAITKDGVFATIVAKVKEGAPNGLSVIKFVEVGGFANNDLVEQKTQFFDGGVNVGDTTEPATPTTPVTTPTTTDDLDAASCPINWVEHQGSCYWFSRSGKTWPEAERYCQLENTHLVVINSREEQNFVQAHLGSAYTWMGLSDPEGVWKWVDGTDYSSGFQNWKPGQPDDWQGHGLGGGEDCAHFHPDGRWNDDVCQRSYHWVCEAGLTQASQDSH
# Assays:
# Experiment in all cases: glycan array binding signal (z-score within array); higher = stronger binding
# Conditions in all cases: glycan notation: IUPAC condensed, linker removed
# [1] = molecular target: Neu5Ac(a2-3)Gal(b1-3)GalNAc
# Method in brief: (§1)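 The Consortium for Functional Glycomics database supplied 3228 glycan arrays, of which those lacking an available protein sequence were dropped. The binding signal, a within-array Z-score, was averaged across arrays of the same protein sequence and across linkers. Negative scores can be read as non-binding.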
# [2] = molecular target: Neu5Ac(a2-3)Gal(b1-3)GalNAc(b1-3)Gal(a1-4)Gal(b1-4)Glc
# Method in brief: as §1
# [3] = molecular target: Neu5Ac(a2-3)Gal(b1-3)GalNAc(b1-4)[Neu5Ac(a2-3)]Gal(b1-4)Glc
# Method in brief: as §1
# [4] = molecular target: Neu5Ac(a2-3)Gal(b1-3)GalNAc(b1-4)[Neu5Ac(a2-8)Neu5Ac(a2-3)]Gal(b1-4)Glc
# Method in brief: as §1
# [5] = molecular target: Neu5Ac(a2-3)Gal(b1-3)GalNAc6S
# Method in brief: as §1
# [6] = molecular target: Neu5Ac(a2-3)Gal(b1-3)GlcNAc
# Method in brief: as §1
# [7] = molecular target: Neu5Ac(a2-3)Gal(b1-3)GlcNAc(b1-2)Man
# Method in brief: as §1
# [8] = molecular target: Neu5Ac(a2-3)Gal(b1-3)GlcNAc(b1-2)Man(a1-3)[GlcNAc(b1-4)][Neu5Ac(a2-3)Gal(b1-3)GlcNAc(b1-2)Man(a1-6)]Man(b1-4)GlcNAc(b1-4)GlcNAc
# Method in brief: as §1
# [9] = molecular target: Neu5Ac(a2-3)Gal(b1-3)GlcNAc(b1-2)Man(a1-3)[Neu5Ac(a2-3)Gal(b1-3)GlcNAc(b1-2)Man(a1-6)]Man(b1-4)GlcNAc(b1-4)GlcNAc
# Method in brief: as §1
# [10] = molecular target: Neu5Ac(a2-3)Gal(b1-3)GlcNAc(b1-3)Gal(b1-3)GlcNAc
# Method in brief: as §1
# [11] = molecular target: Neu5Ac(a2-3)Gal(b1-3)GlcNAc(b1-3)Gal(b1-4)GlcNAc
# Method in brief: as §1
# [12] = molecular target: Neu5Ac(a2-3)Gal(b1-3)GlcNAc(b1-3)GalNAc
# Method in brief: as §1
# [13] = molecular target: Neu5Ac(a2-3)Gal(b1-3)GlcNAc(b1-4)Gal(b1-4)Glc
# Method in brief: as §1
# [14] = molecular target: Neu5Ac(a2-3)Gal(b1-3)GlcNAc(b1-6)GalNAc
# Method in brief: as §1
# [15] = molecular target: Neu5Ac(a2-3)Gal(b1-3)GlcNAc6S
# Method in brief: as §1
# [16] = molecular target: Neu5Ac(a2-3)Gal(b1-3)[Fuc(a1-4)]GlcNAc
# Method in brief: as §1
# [17] = molecular target: Neu5Ac(a2-3)Gal(b1-3)[Fuc(a1-4)]GlcNAc(b1-3)Gal(b1-3)[Fuc(a1-4)]GlcNAc
# Method in brief: as §1
# [18] = molecular target: Neu5Ac(a2-3)Gal(b1-3)[Fuc(a1-4)]GlcNAc(b1-3)Gal(b1-4)[Fuc(a1-3)]GlcNAc
# Method in brief: as §1
# [19] = molecular target: Neu5Ac(a2-3)Gal(b1-3)[GlcNAc(b1-6)]GalNAc
# Method in brief: as §1
# [20] = molecular target: Neu5Ac(a2-3)Gal(b1-3)[Neu5Ac(a2-6)]GalNAc
# Method in brief: as §1
# [21] = molecular target: Neu5Ac(a2-3)Gal(b1-3)[Neu5Ac(a2-6)]GlcNAc(b1-3)[Fuc(a1-3)[Gal(b1-4)]GlcNAc(b1-6)]Gal(b1-4)Glc
# Method in brief: as §1
# [22] = molecular target: Neu5Ac(a2-3)Gal(b1-3)]Neu5Ac(a2-3)Gal(b1-4)]GlcNAc
# Method in brief: as §1
# Neu5Ac(a2-3)Gal(b1-4)Glc = molecular target: Neu5Ac(a2-3)Gal(b1-4)Glc
# Method in brief: as §1
# [23] = molecular target: Neu5Ac(a2-3)Gal(b1-4)GlcNAc
# Method in brief: as §1
# [24] = molecular target: Neu5Ac(a2-3)Gal(b1-4)GlcNAc(b1-2)Man
# Method in brief: as §1
# [25] = molecular target: Neu5Ac(a2-3)Gal(b1-4)GlcNAc(b1-2)Man(a1-3)[GlcNAc(b1-4)][Neu5Ac(a2-3)Gal(b1-4)GlcNAc(b1-2)Man(a1-6)]Man(b1-4)GlcNAc(b1-4)GlcNAc
# Method in brief: as §1
# [26] = molecular target: Neu5Ac(a2-3)Gal(b1-4)GlcNAc(b1-2)Man(a1-3)[Neu5Ac(a2-3)Gal(b1-4)GlcNAc(b1-2)Man(a1-6)]Man(b1-4)GlcNAc(b1-4)GlcNAc
# Method in brief: as §1
# [27] = molecular target: Neu5Ac(a2-3)Gal(b1-4)GlcNAc(b1-2)Man(a1-3)[Neu5Ac(a2-3)Gal(b1-4)GlcNAc(b1-2)Man(a1-6)]Man(b1-4)GlcNAc(b1-4)[Fuc(a1-6)]GlcNAc
# Method in brief: as §1
# [28] = molecular target: Neu5Ac(a2-3)Gal(b1-4)GlcNAc(b1-2)Man(a1-3)[Neu5Ac(a2-6)Gal(b1-4)GlcNAc(b1-2)Man(a1-6)]Man(b1-4)GlcNAc(b1-4)GlcNAc
# Method in brief: as §1
# [29] = molecular target: Neu5Ac(a2-3)Gal(b1-4)GlcNAc(b1-2)[Neu5Ac(a2-3)Gal(b1-4)GlcNAc(b1-4)]Man(a1-3)[GlcNAc(b1-4)][Neu5Ac(a2-3)Gal(b1-4)GlcNAc(b1-2)[Neu5Ac(a2-3)Gal(b1-4)GlcNAc(b1-6)]Man(a1-6)]Man(b1-4)GlcNAc(b1-4)GlcNAc
# Method in brief: as §1
# [30] = molecular target: Neu5Ac(a2-3)Gal(b1-4)GlcNAc(b1-2)[Neu5Ac(a2-3)Gal(b1-4)GlcNAc(b1-4)]Man(a1-3)[GlcNAc(b1-4)][Neu5Ac(a2-3)Gal(b1-4)GlcNAc(b1-4)Man(a1-6)]Man(b1-4)GlcNAc(b1-4)GlcNAc
# Method in brief: as §1
# [31] = molecular target: Neu5Ac(a2-3)Gal(b1-4)GlcNAc(b1-2)[Neu5Ac(a2-3)Gal(b1-4)GlcNAc(b1-6)]Man(a1-6)[Neu5Ac(a2-3)Gal(b1-4)GlcNAc(b1-2)Man(a1-3)]Man(b1-4)GlcNAc(b1-4)GlcNAc
# Method in brief: as §1
# [32] = molecular target: Neu5Ac(a2-3)Gal(b1-4)GlcNAc(b1-2)[Neu5Ac(a2-3)Gal(b1-4)GlcNAc(b1-6)]Man(a1-6)[Neu5Ac(a2-3)Gal(b1-4)GlcNAc(b1-2)Man(a1-3)][GlcNAc(b1-4)]Man(b1-4)GlcNAc(b1-4)GlcNAc
# Method in brief: as §1
# [33] = molecular target: Neu5Ac(a2-3)Gal(b1-4)GlcNAc(b1-3)Gal
# Method in brief: as §1
# [34] = molecular target: Neu5Ac(a2-3)Gal(b1-4)GlcNAc(b1-3)Gal(b1-3)GlcNAc
# Method in brief: as §1
# [35] = molecular target: Neu5Ac(a2-3)Gal(b1-4)GlcNAc(b1-3)Gal(b1-4)GlcNAc
# Method in brief: as §1
# [36] = molecular target: Neu5Ac(a2-3)Gal(b1-4)GlcNAc(b1-3)Gal(b1-4)GlcNAc(b1-2)Man(a1-3)[Neu5Ac(a2-3)Gal(b1-4)GlcNAc(b1-3)Gal(b1-4)GlcNAc(b1-2)Man(a1-6)]Man(b1-4)GlcNAc(b1-4)GlcNAc
# Method in brief: as §1
binder,measurement,setting,value
B1,glycan array binding signal (z-score),[1],-0.428
same,glycan array binding signal (z-score),[2],-0.415
same,glycan array binding signal (z-score),[3],-0.433
same,glycan array binding signal (z-score),[4],-0.362
same,glycan array binding signal (z-score),[5],-0.363
same,glycan array binding signal (z-score),[6],-0.429
same,glycan array binding signal (z-score),[7],-0.344
same,glycan array binding signal (z-score),[8],-0.439
same,glycan array binding signal (z-score),[9],-0.376
same,glycan array binding signal (z-score),[10],-0.433
same,glycan array binding signal (z-score),[11],-0.449
same,glycan array binding signal (z-score),[12],-0.439
same,glycan array binding signal (z-score),[13],-0.449
same,glycan array binding signal (z-score),[14],2.55
same,glycan array binding signal (z-score),[15],-0.341
same,glycan array binding signal (z-score),[16],-0.426
same,glycan array binding signal (z-score),[17],0.142
same,glycan array binding signal (z-score),[18],-0.107
same,glycan array binding signal (z-score),[19],-0.455
same,glycan array binding signal (z-score),[20],-0.074
same,glycan array binding signal (z-score),[21],-0.447
same,glycan array binding signal (z-score),[22],-0.415
same,glycan array binding signal (z-score),Neu5Ac(a2-3)Gal(b1-4)Glc,-0.429
same,glycan array binding signal (z-score),[23],-0.447
same,glycan array binding signal (z-score),[24],-0.077
same,glycan array binding signal (z-score),[25],-0.448
same,glycan array binding signal (z-score),[26],-0.325
same,glycan array binding signal (z-score),[27],-0.449
same,glycan array binding signal (z-score),[28],-0.442
same,glycan array binding signal (z-score),[29],-0.254
same,glycan array binding signal (z-score),[30],-0.46
same,glycan array binding signal (z-score),[31],-0.331
same,glycan array binding signal (z-score),[32],-0.446
same,glycan array binding signal (z-score),[33],-0.455
same,glycan array binding signal (z-score),[34],-0.414
same,glycan array binding signal (z-score),[35],-0.444
same,glycan array binding signal (z-score),[36],-0.347
